For 63 sequences, binding signal (RPM ratio (pull-down/input)) results are on record in publication PMC12820563.

This is one part of the list. The list includes weakly bound sequences.

The assay addresses T1, MBP-FoxP3dN (UniProt Q99JB6).
T1 sequence: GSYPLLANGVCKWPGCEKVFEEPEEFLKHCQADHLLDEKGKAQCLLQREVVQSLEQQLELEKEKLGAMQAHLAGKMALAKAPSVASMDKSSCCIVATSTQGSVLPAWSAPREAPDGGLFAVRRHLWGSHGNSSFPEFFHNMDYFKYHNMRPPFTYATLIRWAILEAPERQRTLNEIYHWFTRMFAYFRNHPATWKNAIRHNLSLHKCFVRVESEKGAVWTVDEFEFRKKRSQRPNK
The assay can be described thus: PD-seq (MBP pull-down with sequencing). As to conditions: 20 mM Tris-HCl pH 7.5, 100 mM NaCl, 1.5 mM MgCl2, 0.4 uM protein, 0.1 uM dsDNA library, 30 min, room temperature, amylose pull-down; high values mean tight binding; double strand, one strand shown.
Regarding “GATGATTGTTCTCCCAGCTGATGAATTACTTACTTCGAGTAAACAAATTTTCCTAATCTTTCTGTTCAAGCGCCATCTAC”, the binding signal (RPM ratio (pull-down/input)) was 0.438. As for “GATGATTGTTCTCCCAGCTGATGAATTTACCCCTTCGAGTAAACAAATTTTCCTAATCTTTCTGTTCAAGCGCCATCTAC”, the binding signal (RPM ratio (pull-down/input)) was 0.387. To “GATGATTGTTCTCCCAGCTGATGAATTAATACAATCGAGTAAACAAATTTTCCTAATCTTTCTGTTCAAGCGCCATCTAC” belongs 0.959; to “GATGATTGTTCTCCCAGCTGATGAATTTTAGTCCTCGAGTAAACAAATTTTCCTAATCTTTCTGTTCAAGCGCCATCTAC”, 0.354. In the case of “GATGATTGTTCTCCCAGCTGATGAATTGCGAAATTCGAGTAAACAAATTTTCCTAATCTTTCTGTTCAAGCGCCATCTAC” it was 0.938. To “GATGATTGTTCTCCCAGCTGATGAATTGCGTTGGTCGAGTAAACAAATTTTCCTAATCTTTCTGTTCAAGCGCCATCTAC” belongs 1.74; to “GATGATTGTTCTCCCAGCTGATGAATTGCTTCAATCGAGTAAACAAATTTTCCTAATCTTTCTGTTCAAGCGCCATCTAC”, 0.425. Regarding “GATGATTGTTCTCCCAGCTGATGAATTATAGACGTCGAGTAAACAAATTTTCCTAATCTTTCTGTTCAAGCGCCATCTAC”, the binding signal (RPM ratio (pull-down/input)) was found to be 0.36. “GATGATTGTTCTCCCAGCTGATGAATTATCAAAATCGAGTAAACAAATTTTCCTAATCTTTCTGTTCAAGCGCCATCTAC”: the binding signal (RPM ratio (pull-down/input)) worked out at 0.251.

“GATGATTGTTCTCCCAGCTGATGAATTGTTAGCATCGAGTAAACAAATTTTCCTAATCTTTCTGTTCAAGCGCCATCTAC”: the binding signal (RPM ratio (pull-down/input)) stood at 2.56.

Turning to “GATGATTGTTCTCCCAGCTGATGAATTTGCAGGCTCGAGTAAACAAATTTTCCTAATCTTTCTGTTCAAGCGCCATCTAC”, the binding signal (RPM ratio (pull-down/input)) amounted to 0.639. Take “GATGATTGTTCTCCCAGCTGATGAATTAGAATGGTCGAGTAAACAAATTTTCCTAATCTTTCTGTTCAAGCGCCATCTAC”: the binding signal (RPM ratio (pull-down/input)) came out at 0.389. To “GATGATTGTTCTCCCAGCTGATGAATTGACGTAATCGAGTAAACAAATTTTCCTAATCTTTCTGTTCAAGCGCCATCTAC” belongs 0.865; to “GATGATTGTTCTCCCAGCTGATGAATTGGCAAGATCGAGTAAACAAATTTTCCTAATCTTTCTGTTCAAGCGCCATCTAC”, 0.286; to “GATGATTGTTCTCCCAGCTGATGAATTGGCGTGGTCGAGTAAACAAATTTTCCTAATCTTTCTGTTCAAGCGCCATCTAC”, 1.22.

For the sequence “GATGATTGTTCTCCCAGCTGATGAATTACGGTAATCGAGTAAACAAATTTTCCTAATCTTTCTGTTCAAGCGCCATCTAC”, the binding signal (RPM ratio (pull-down/input)) turned out to be 0.556. In the case of “GATGATTGTTCTCCCAGCTGATGAATTCCGTTAGTCGAGTAAACAAATTTTCCTAATCTTTCTGTTCAAGCGCCATCTAC” it was 1.22; in that of “GATGATTGTTCTCCCAGCTGATGAATTCGCAAAGTCGAGTAAACAAATTTTCCTAATCTTTCTGTTCAAGCGCCATCTAC”, 0.253. With “GATGATTGTTCTCCCAGCTGATGAATTCCCACCATCGAGTAAACAAATTTTCCTAATCTTTCTGTTCAAGCGCCATCTAC”, the binding signal (RPM ratio (pull-down/input)) was 0.298. To “GATGATTGTTCTCCCAGCTGATGAATTGCGGTAATCGAGTAAACAAATTTTCCTAATCTTTCTGTTCAAGCGCCATCTAC” belongs 0.909.

In the case of “GATGATTGTTCTCCCAGCTGATGAATTGAGCTAGTCGAGTAAACAAATTTTCCTAATCTTTCTGTTCAAGCGCCATCTAC”, the binding signal (RPM ratio (pull-down/input)) is 0.815. To “GATGATTGTTCTCCCAGCTGATGAATTCACCTTGTCGAGTAAACAAATTTTCCTAATCTTTCTGTTCAAGCGCCATCTAC” belongs 0.341; to “GATGATTGTTCTCCCAGCTGATGAATTTGAGATATCGAGTAAACAAATTTTCCTAATCTTTCTGTTCAAGCGCCATCTAC”, 0.422; to “GATGATTGTTCTCCCAGCTGATGAATTTATTTCTTCGAGTAAACAAATTTTCCTAATCTTTCTGTTCAAGCGCCATCTAC”, 3.01. In the case of “GATGATTGTTCTCCCAGCTGATGAATTCTAAATGTCGAGTAAACAAATTTTCCTAATCTTTCTGTTCAAGCGCCATCTAC” it was 0.367. As to “GATGATTGTTCTCCCAGCTGATGAATTGTTTTCGTCGAGTAAACAAATTTTCCTAATCTTTCTGTTCAAGCGCCATCTAC”, the binding signal (RPM ratio (pull-down/input)) stood at 3.95. Regarding “GATGATTGTTCTCCCAGCTGATGAATTTGAAGGTTCGAGTAAACAAATTTTCCTAATCTTTCTGTTCAAGCGCCATCTAC”, the binding signal (RPM ratio (pull-down/input)) came to 0.401. For the sequence “GATGATTGTTCTCCCAGCTGATGAATTGATCCTGTCGAGTAAACAAATTTTCCTAATCTTTCTGTTCAAGCGCCATCTAC”, the binding signal (RPM ratio (pull-down/input)) was 0.304. On to “GATGATTGTTCTCCCAGCTGATGAATTATACCTATCGAGTAAACAAATTTTCCTAATCTTTCTGTTCAAGCGCCATCTAC”, for which the binding signal (RPM ratio (pull-down/input)) stood at 0.557. In the case of “GATGATTGTTCTCCCAGCTGATGAATTTCTCCAGTCGAGTAAACAAATTTTCCTAATCTTTCTGTTCAAGCGCCATCTAC” it was 0.165; in that of “GATGATTGTTCTCCCAGCTGATGAATTTCGTGCCTCGAGTAAACAAATTTTCCTAATCTTTCTGTTCAAGCGCCATCTAC”, 0.931. In the case of “GATGATTGTTCTCCCAGCTGATGAATTCACCCCCTCGAGTAAACAAATTTTCCTAATCTTTCTGTTCAAGCGCCATCTAC” it was 0.272; in that of “GATGATTGTTCTCCCAGCTGATGAATTCCTTAATTCGAGTAAACAAATTTTCCTAATCTTTCTGTTCAAGCGCCATCTAC”, 0.24. In the case of “GATGATTGTTCTCCCAGCTGATGAATTCACATGCTCGAGTAAACAAATTTTCCTAATCTTTCTGTTCAAGCGCCATCTAC” it was 0.452. On to “GATGATTGTTCTCCCAGCTGATGAATTGCCGCCATCGAGTAAACAAATTTTCCTAATCTTTCTGTTCAAGCGCCATCTAC”, for which the binding signal (RPM ratio (pull-down/input)) stood at 2.97. On to “GATGATTGTTCTCCCAGCTGATGAATTCCCCGTATCGAGTAAACAAATTTTCCTAATCTTTCTGTTCAAGCGCCATCTAC”, for which the binding signal (RPM ratio (pull-down/input)) came out at 0.309. For the sequence “GATGATTGTTCTCCCAGCTGATGAATTGACCTCATCGAGTAAACAAATTTTCCTAATCTTTCTGTTCAAGCGCCATCTAC”, the binding signal (RPM ratio (pull-down/input)) is 0.354.

“GATGATTGTTCTCCCAGCTGATGAATTGCAAAGTTCGAGTAAACAAATTTTCCTAATCTTTCTGTTCAAGCGCCATCTAC”: the binding signal (RPM ratio (pull-down/input)) came out at 0.633. In the case of “GATGATTGTTCTCCCAGCTGATGAATTCATCCACTCGAGTAAACAAATTTTCCTAATCTTTCTGTTCAAGCGCCATCTAC” it was 0.414; in that of “GATGATTGTTCTCCCAGCTGATGAATTAGTGGCTTCGAGTAAACAAATTTTCCTAATCTTTCTGTTCAAGCGCCATCTAC”, 1.19; in that of “GATGATTGTTCTCCCAGCTGATGAATTTCCCTTTTCGAGTAAACAAATTTTCCTAATCTTTCTGTTCAAGCGCCATCTAC”, 0.236. In the case of “GATGATTGTTCTCCCAGCTGATGAATTAACTTTGTCGAGTAAACAAATTTTCCTAATCTTTCTGTTCAAGCGCCATCTAC”, the binding signal (RPM ratio (pull-down/input)) worked out at 0.607.

Regarding “GATGATTGTTCTCCCAGCTGATGAATTCTGGCGGTCGAGTAAACAAATTTTCCTAATCTTTCTGTTCAAGCGCCATCTAC”, the binding signal (RPM ratio (pull-down/input)) came out at 0.281. For the sequence “GATGATTGTTCTCCCAGCTGATGAATTGTAAGAGTCGAGTAAACAAATTTTCCTAATCTTTCTGTTCAAGCGCCATCTAC”, the binding signal (RPM ratio (pull-down/input)) was 0.313.

In the case of “GATGATTGTTCTCCCAGCTGATGAATTGCTGCATTCGAGTAAACAAATTTTCCTAATCTTTCTGTTCAAGCGCCATCTAC”, the binding signal (RPM ratio (pull-down/input)) worked out at 6.8. Turning to “GATGATTGTTCTCCCAGCTGATGAATTCACTCACTCGAGTAAACAAATTTTCCTAATCTTTCTGTTCAAGCGCCATCTAC”, the binding signal (RPM ratio (pull-down/input)) is 0.383.

As to “GATGATTGTTCTCCCAGCTGATGAATTTCATAAGTCGAGTAAACAAATTTTCCTAATCTTTCTGTTCAAGCGCCATCTAC”, the binding signal (RPM ratio (pull-down/input)) was 0.218.

With “GATGATTGTTCTCCCAGCTGATGAATTCTGATGATCGAGTAAACAAATTTTCCTAATCTTTCTGTTCAAGCGCCATCTAC”, the binding signal (RPM ratio (pull-down/input)) came out at 1.27. To “GATGATTGTTCTCCCAGCTGATGAATTTGGCCAGTCGAGTAAACAAATTTTCCTAATCTTTCTGTTCAAGCGCCATCTAC” belongs 1.41; to “GATGATTGTTCTCCCAGCTGATGAATTATCGCCTTCGAGTAAACAAATTTTCCTAATCTTTCTGTTCAAGCGCCATCTAC”, 2.9; to “GATGATTGTTCTCCCAGCTGATGAATTCGATTTATCGAGTAAACAAATTTTCCTAATCTTTCTGTTCAAGCGCCATCTAC”, 1.71. To “GATGATTGTTCTCCCAGCTGATGAATTTGAGATCTCGAGTAAACAAATTTTCCTAATCTTTCTGTTCAAGCGCCATCTAC” belongs 0.446; to “GATGATTGTTCTCCCAGCTGATGAATTCAACATATCGAGTAAACAAATTTTCCTAATCTTTCTGTTCAAGCGCCATCTAC”, 0.557. As to “GATGATTGTTCTCCCAGCTGATGAATTTCTGCGATCGAGTAAACAAATTTTCCTAATCTTTCTGTTCAAGCGCCATCTAC”, the binding signal (RPM ratio (pull-down/input)) was 0.556.

For the sequence “GATGATTGTTCTCCCAGCTGATGAATTTGAGATGTCGAGTAAACAAATTTTCCTAATCTTTCTGTTCAAGCGCCATCTAC”, the binding signal (RPM ratio (pull-down/input)) was 0.56. As for “GATGATTGTTCTCCCAGCTGATGAATTCAGGGGCTCGAGTAAACAAATTTTCCTAATCTTTCTGTTCAAGCGCCATCTAC”, the binding signal (RPM ratio (pull-down/input)) was determined as 0.323. In the case of “GATGATTGTTCTCCCAGCTGATGAATTGAACCGATCGAGTAAACAAATTTTCCTAATCTTTCTGTTCAAGCGCCATCTAC” it was 0.249; in that of “GATGATTGTTCTCCCAGCTGATGAATTGGACAGGTCGAGTAAACAAATTTTCCTAATCTTTCTGTTCAAGCGCCATCTAC”, 0.217; in that of “GATGATTGTTCTCCCAGCTGATGAATTTTTTTCGTCGAGTAAACAAATTTTCCTAATCTTTCTGTTCAAGCGCCATCTAC”, 0.345.

Regarding “GATGATTGTTCTCCCAGCTGATGAATTAAGTCACTCGAGTAAACAAATTTTCCTAATCTTTCTGTTCAAGCGCCATCTAC”, the binding signal (RPM ratio (pull-down/input)) came out at 1.03. As for “GATGATTGTTCTCCCAGCTGATGAATTCATGTAGTCGAGTAAACAAATTTTCCTAATCTTTCTGTTCAAGCGCCATCTAC”, the binding signal (RPM ratio (pull-down/input)) worked out at 0.756. With “GATGATTGTTCTCCCAGCTGATGAATTTCTTTTATCGAGTAAACAAATTTTCCTAATCTTTCTGTTCAAGCGCCATCTAC”, the binding signal (RPM ratio (pull-down/input)) was found to be 0.545. In the case of “GATGATTGTTCTCCCAGCTGATGAATTGGCAAATTCGAGTAAACAAATTTTCCTAATCTTTCTGTTCAAGCGCCATCTAC” it was 0.349.
